# This is one part of the list.
# B1: XL-35 (Xenopus laevis) (protein)
# chain: MLVHILLLLVTGGLSQSCDPVVIVASKNMVKQLDCDKFRNCKEIKDSNEEAQDGIYTLTSPDGISYQTFCDMTTNGGGWTLVASVHENNMAGKCTIGDRWSSQQGNRADYPEGDGNWANYNTFGSAGGATSDDYKNPGYYDIEAYNLGVWHVPNKTPLSVWRNSSLQRYRTTDGILFKHGGNLFSLYRIYPVKYGIGSCSKDSGPTVPVVYDLGSANLTASFYSPGFRSQFTPGYIQFRPINTEKAALALCPGMKMESCNVEHVCIGGGGYFPEADPRQCGDFAAYDFNGYGTKKFNSAGIEITEAAVLLFYL
# Key:
# Assay in all cases: glycan array binding signal (z-score within array); higher = stronger binding
# Conditions in all cases: glycan notation: IUPAC condensed, linker removed
# GalNAc(b1-3)GalNAc = target: GalNAc(b1-3)GalNAc
# Summary of the method: (§1)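 Columns mapping to the same glycan were averaged after glycan names were converted to IUPAC-condensed notation. The data come from 3228 arrays in the Consortium for Functional Glycomics database, limited to those with an available protein sequence. Binding is reported as a within-array Z-score averaged across arrays of one protein sequence and across linkers.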
# GalNAc(b1-3)GlcNAc = target: GalNAc(b1-3)GlcNAc
# Summary of the method: as §1
# GalNAc(b1-4)Gal(b1-4)Glc = target: GalNAc(b1-4)Gal(b1-4)Glc
# Summary of the method: as §1
# GalNAc(b1-4)GlcNAc = target: GalNAc(b1-4)GlcNAc
# Summary of the method: as §1
# [1] = target: GalNAc(b1-4)GlcNAc(b1-2)Man
# Summary of the method: as §1
# [2] = target: GalNAc(b1-4)GlcNAc(b1-2)Man(a1-3)[GalNAc(b1-4)GlcNAc(b1-2)Man(a1-6)]Man(b1-4)GlcNAc(b1-4)GlcNAc
# Summary of the method: as §1
# [3] = target: GalNAc(b1-4)GlcNAc(b1-3)GalNAc(b1-4)GlcNAc
# Summary of the method: as §1
# GalNAc(b1-4)GlcNAc6S = target: GalNAc(b1-4)GlcNAc6S
# Summary of the method: as §1
# GalNAc(b1-6)GalNAc = target: GalNAc(b1-6)GalNAc
# Summary of the method: as §1
# GalNAc3S(b1-4)GlcNAc = target: GalNAc3S(b1-4)GlcNAc
# Summary of the method: as §1
# GalNAc3S(b1-4)GlcNAc3S = target: GalNAc3S(b1-4)GlcNAc3S
# Summary of the method: as §1
# [4] = target: GalNAc3S(b1-4)[Fuc(a1-3)]GlcNAc
# Summary of the method: as §1
# GalNAc4S6S(b1-4)GlcNAc = target: GalNAc4S6S(b1-4)GlcNAc
# Summary of the method: as §1
# GalNAc6S(b1-4)GlcNAc = target: GalNAc6S(b1-4)GlcNAc
# Summary of the method: as §1
# Glc(a1-4)Glc = target: Glc(a1-4)Glc
# Summary of the method: as §1
# [5] = target: Glc(a1-4)Glc(a1-4)Glc(a1-4)Glc
# Summary of the method: as §1
# Glc(a1-6)Glc(a1-6)Glc = target: Glc(a1-6)Glc(a1-6)Glc
# Summary of the method: as §1
# [6] = target: Glc(a1-6)Glc(a1-6)Glc(a1-6)Glc
# Summary of the method: as §1
# Glc(b1-4)Glc = target: Glc(b1-4)Glc
# Summary of the method: as §1
# Glc(b1-6)Glc = target: Glc(b1-6)Glc
# Summary of the method: as §1
# GlcA(b1-3)Gal = target: GlcA(b1-3)Gal
# Summary of the method: as §1
# GlcA(b1-3)GlcNAc = target: GlcA(b1-3)GlcNAc
# Summary of the method: as §1
# GlcA(b1-6)Gal = target: GlcA(b1-6)Gal
# Summary of the method: as §1
# [7] = target: GlcA3S(b1-3)Gal(b1-4)GlcNAc(b1-2)Man
# Summary of the method: as §1
# [8] = target: GlcA3S(b1-3)Gal(b1-4)GlcNAc(b1-3)Gal(b1-4)Glc
# Summary of the method: as §1
# [9] = target: GlcNAc(a1-3)Gal(b1-4)GlcNAc
# Summary of the method: as §1
# [10] = target: GlcNAc(a1-4)Gal(b1-3)GlcNAc
# Summary of the method: as §1
# [11] = target: GlcNAc(a1-4)Gal(b1-4)GalNAc
# Summary of the method: as §1
# [12] = target: GlcNAc(a1-4)Gal(b1-4)GlcNAc
# Summary of the method: as §1
# [13] = target: GlcNAc(a1-4)Gal(b1-4)GlcNAc(b1-3)Gal(b1-4)Glc
# Summary of the method: as §1
# [14] = target: GlcNAc(a1-4)Gal(b1-4)GlcNAc(b1-3)Gal(b1-4)GlcNAc
# Summary of the method: as §1
# [15] = target: GlcNAc(a1-4)Gal(b1-4)GlcNAc(b1-3)Gal(b1-4)GlcNAc(b1-3)Gal(b1-4)GlcNAc
# Summary of the method: as §1
# [16] = target: GlcNAc(a1-4)Gal(b1-4)GlcNAc(b1-3)Gal(b1-4)[Fuc(a1-3)]GlcNAc(b1-3)Gal(b1-4)[Fuc(a1-3)]GlcNAc
# Summary of the method: as §1
# [17] = target: GlcNAc(a1-6)Gal(b1-4)GlcNAc
# Summary of the method: as §1
# [18] = target: GlcNAc(b1-2)Gal(b1-3)GalNAc
# Summary of the method: as §1
# [19] = target: GlcNAc(b1-2)Gal(b1-3)GlcNAc
# Summary of the method: as §1
# [20] = target: GlcNAc(b1-2)Man(a1-3)[GlcNAc(b1-2)Man(a1-6)]Man(b1-4)GlcNAc(b1-4)GlcNAc
# Summary of the method: as §1
# [21] = target: GlcNAc(b1-2)Man(a1-3)[GlcNAc(b1-2)Man(a1-6)]Man(b1-4)GlcNAc(b1-4)[Fuc(a1-6)]GlcNAc
# Summary of the method: as §1
binder,measurement,setting,value
B1,glycan array binding signal (z-score),GalNAc(b1-3)GalNAc,-0.054
same,glycan array binding signal (z-score),GalNAc(b1-3)GlcNAc,0.051
same,glycan array binding signal (z-score),GalNAc(b1-4)Gal(b1-4)Glc,0.155
same,glycan array binding signal (z-score),GalNAc(b1-4)GlcNAc,0.518
same,glycan array binding signal (z-score),[1],0.164
same,glycan array binding signal (z-score),[2],0.116
same,glycan array binding signal (z-score),[3],-0.391
same,glycan array binding signal (z-score),GalNAc(b1-4)GlcNAc6S,-0.325
same,glycan array binding signal (z-score),GalNAc(b1-6)GalNAc,-0.413
same,glycan array binding signal (z-score),GalNAc3S(b1-4)GlcNAc,0.077
same,glycan array binding signal (z-score),GalNAc3S(b1-4)GlcNAc3S,0.009
same,glycan array binding signal (z-score),[4],-0.078
same,glycan array binding signal (z-score),GalNAc4S6S(b1-4)GlcNAc,0.078
same,glycan array binding signal (z-score),GalNAc6S(b1-4)GlcNAc,-0.092
same,glycan array binding signal (z-score),Glc(a1-4)Glc,-0.067
same,glycan array binding signal (z-score),[5],0.071
same,glycan array binding signal (z-score),Glc(a1-6)Glc(a1-6)Glc,-0.098
same,glycan array binding signal (z-score),[6],0.158
same,glycan array binding signal (z-score),Glc(b1-4)Glc,-0.303
same,glycan array binding signal (z-score),Glc(b1-6)Glc,0.029
same,glycan array binding signal (z-score),GlcA(b1-3)Gal,-0.196
same,glycan array binding signal (z-score),GlcA(b1-3)GlcNAc,-0.417
same,glycan array binding signal (z-score),GlcA(b1-6)Gal,0.045
same,glycan array binding signal (z-score),[7],-0.708
same,glycan array binding signal (z-score),[8],-0.126
same,glycan array binding signal (z-score),[9],-0.074
same,glycan array binding signal (z-score),[10],0.45
same,glycan array binding signal (z-score),[11],-0.303
same,glycan array binding signal (z-score),[12],-0.335
same,glycan array binding signal (z-score),[13],0.22
same,glycan array binding signal (z-score),[14],0.253
same,glycan array binding signal (z-score),[15],-0.301
same,glycan array binding signal (z-score),[16],1.05
same,glycan array binding signal (z-score),[17],-0.183
same,glycan array binding signal (z-score),[18],-0.166
same,glycan array binding signal (z-score),[19],-0.087
same,glycan array binding signal (z-score),[20],-0.101
same,glycan array binding signal (z-score),[21],0.138

# — the supplement of paper PMC8728848
